Test results as given in patent publication US7517874B2 (priority 2007, dated 2009).

Biological target: human CB2 receptor (hCB2) (Homo sapiens, UniProt P34972)
Assay: cell-based
Format: cell-based
Conditions: for +/− HCB2: agonist or inverse agonist at hCB2

Sequence of human CB2 receptor (hCB2) (P34972 whole entry): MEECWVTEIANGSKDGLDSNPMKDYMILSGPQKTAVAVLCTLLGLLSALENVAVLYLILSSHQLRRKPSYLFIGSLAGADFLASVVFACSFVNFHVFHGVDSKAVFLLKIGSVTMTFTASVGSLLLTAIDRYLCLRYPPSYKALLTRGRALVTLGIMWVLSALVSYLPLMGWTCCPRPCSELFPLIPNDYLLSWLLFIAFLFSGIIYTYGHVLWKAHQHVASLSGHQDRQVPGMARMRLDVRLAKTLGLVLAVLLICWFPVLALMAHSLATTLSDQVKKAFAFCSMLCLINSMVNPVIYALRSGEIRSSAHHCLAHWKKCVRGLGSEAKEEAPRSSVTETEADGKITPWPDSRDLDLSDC

Compound | +/− HCB2 | other results
COC(=O)[C@@H](NC(=O)c1nc(-c2ccc(C)cc2F)n2c1CNCCC2)C(C)(C)C [Compound 466] |  | EC50: > 10000 nM
CCCNC(=S)N1CCn2c(-c3ccccc3)nc(C(=O)N[C@H](C(=O)NC)C(C)(C)C)c2C1 [Compound 195, (S)-N-(3,3-dimethyl-1-(methylamino)-1-oxobutan-2-yl)-3-phenyl-7-(propylcarbamothioyl)-5,6,7,8-tetrahydroimidazo[1,5-a]pyrazine-1-carboxamide] |  | EC50: > 10000 nM
CN1CCCn2c(-c3ccc(F)c(F)c3)nc(C(=O)N[C@@H](CC(C)(C)C)C(N)=O)c2C1 [Compound 586, (S)-N-(1-amino-4,4-dimethyl-1-oxopentan-2-yl)-3-(3,4-difluorophenyl)-8-methyl-6,7,8,9-tetrahydro-5H-imidazo[1,5-a][1,4]diazepine-1-carboxamide] | + | 
CNC(=O)[C@@H](NC(=O)c1nc(-c2ccc(Cl)cc2F)n2c1CN(c1ncccn1)CCC2)C(C)(C)C [Compound 482, 3-(4-chloro-2-fluorophenyl)-N-(3,3-dimethyl-1-(methylamino)-1-oxobutan-2-yl)-8-(pyrimidin-2-yl)-6,7,8,9-tetrahydro-5H-imidazo[1,5-a][1,4]diazepine-1-carboxamide] | + | 
CNC(=O)[C@@H](NC(=O)c1nc(-c2cccc3ccccc23)n2c1CN(C)CCC2)C(C)(C)C [Compound 417, (S)-N-(3,3-dimethyl-1-(methylamino)-1-oxobutan-2-yl)-8-methyl-3-(naphthalen-1-yl)-6,7,8,9-tetrahydro-5H-imidazo[1,5-a][1,4]diazepine-1-carboxamide] |  | EC50: > 10000 nM
CNC(=O)[C@@H](NC(=O)c1nc(-c2cc(Cl)ccc2F)n2c1CN(C)CCC2)C(C)(C)C [Compound 361, (S)-3-(5-chloro-2-fluorophenyl)-N-(3,3-dimethyl-1-(methylamino)-1-oxobutan-2-yl)-8-methyl-6,7,8,9-tetrahydro-5H-imidazo[1,5-a][1,4]diazepine-1-carboxamide] | + | 
CC(=O)N1CCn2c(-c3ccccc3)nc(C(=O)Nc3ccccc3)c2C1 [Compound 173, 7-acetyl-N,3-diphenyl-5,6,7,8-tetrahydroimidazo[1,5-a]pyrazine-1-carboxamide] | + | 
CNC(=O)[C@@H](NC(=O)c1nc(C(C)=C(C)C)n2c1CN(C)CCC2)C(C)(C)C [Compound 454, (S)-N-(3,3-dimethyl-1-(methylamino)-1-oxobutan-2-yl)-8-methyl-3-(3-methylbut-2-en-2-yl)-6,7,8,9-tetrahydro-5H-imidazo[1,5-a][1,4]diazepine-1-carboxamide] | + | 
CNC(=O)[C@@H](NC(=O)c1nc(-c2cccc(Cl)c2)n2c1CNCC2)C(C)(C)C [Compound 18, (S)-3-(3-chlorophenyl)-N-(3,3-dimethyl-1-(methylamino)-1-oxobutan-2-yl)-5,6,7,8-tetrahydroimidazo[1,5-a]pyrazine-1-carboxamide] | + | 
CC(C)(CO)CNC(=O)c1nc(-c2ccccc2)n2c1CNCC2 [Compound 29, N-(3-hydroxy-2,2-dimethylpropyl)-3-phenyl-5,6,7,8-tetrahydroimidazo[1,5-a]pyrazine-1-carboxamide] |  | EC50 (groups >100 nM-10 μM and >10 μM, cAMP, CHO-K1 hCB2, read-out: EC50 HCB2): > 10000 nM
CNC(=O)[C@@H](NC(=O)c1nc(/C=C/Cc2ccccc2)n2c1CN(C)CCC2)C(C)(C)C [Compound 458, (S,E)-N-(3,3-dimethyl-1-(methylamino)-1-oxobutan-2-yl)-8-methyl-3-(3-phenylprop-1-enyl)-6,7,8,9-tetrahydro-5H-imidazo[1,5-a][1,4]diazepine-1-carboxamide] | − | 
CNC(=O)[C@@H](NC(=O)c1nc(-c2ccccc2C(F)(F)F)n2c1CN(C)CCC2)C(C)(C)C [Compound 399, (S)-N-(3,3-dimethyl-1-(methylamino)-1-oxobutan-2-yl)-8-methyl-3-(2-(trifluoromethyl)phenyl)-6,7,8,9-tetrahydro-5H-imidazo[1,5-a][1,4]diazepine-1-carboxamide] | + | 
CNC(=O)[C@@H](NC(=O)c1nc(/C=C/CCO)n2c1CN(C)CCC2)C(C)(C)C [Compound 514, (S,E)-N-(3,3-dimethyl-1-(methylamino)-1-oxobutan-2-yl)-3-(4-hydroxybut-1-enyl)-8-methyl-6,7,8,9-tetrahydro-5H-imidazo[1,5-a][1,4]diazepine-1-carboxamide] | + | 
CN1CCCn2c(-c3ccc(Cl)c(F)c3)nc(C(=O)N[C@@H](CC(C)(C)C)C(N)=O)c2C1 [Compound 588, (S)-N-(1-amino-4,4-dimethyl-1-oxopentan-2-yl)-3-(4-chloro-3-fluorophenyl)-8-methyl-6,7,8,9-tetrahydro-5H-imidazo[1,5-a][1,4]diazepine-1-carboxamide] | + | 
CC(C)(C)OC(=O)N1CCn2c(-c3ccccc3)nc(C(=O)Nc3ccccc3)c2C1 [Compound 32, tert-butyl 3-phenyl-1-(phenylcarbamoyl)-5,6-dihydroimidazo[1,5-a]pyrazine-7(8H)-carboxylate] | − | 
CN1CCCn2c(-c3cc(F)c(F)cc3F)nc(C(=O)N[C@H](C(N)=O)C(C)(C)C)c2C1 [Compound 579, (S)-N-(1-amino-3,3-dimethyl-1-oxobutan-2-yl)-8-methyl-3-(2,4,5-trifluorophenyl)-6,7,8,9-tetrahydro-5H-imidazo[1,5-a][1,4]diazepine-1-carboxamide] | + | 
CNC(=O)[C@@H](NC(=O)c1nc(-c2cc(Cl)ccc2OC)n2c1CN(C)CCC2)C(C)(C)C [Compound 327, (S)-3-(5-chloro-2-methoxyphenyl)-N-(3,3-dimethyl-1-(methylamino)-1-oxobutan-2-yl)-8-methyl-6,7,8,9-tetrahydro-5H-imidazo[1,5-a][1,4]diazepine-1-carboxamide] | + | 
CNC(=O)[C@@H](NC(=O)c1nc(-c2ccccc2)n2c1CN(C)CCC2)c1ccccc1 [Compound 543, (S)-8-methyl-N-(2-(methylamino)-2-oxo-1-phenylethyl)-3-phenyl-6,7,8,9-tetrahydro-5H-imidazo[1,5-a][1,4]diazepine-1-carboxamide] | + | 
CNC(=O)[C@@H](NC(=O)c1nc(C2CCCC2)n2c1CN(C)CC2)C(C)(C)C [Compound 303, (S)-3-cyclopentyl-N-(3,3-dimethyl-1-(methylamino)-1-oxobutan-2-yl)-7-methyl-5,6,7,8-tetrahydroimidazo [1,5-a]pyrazine-1-carboxamide] | + | 
CNC(=O)[C@H](CC(C)(C)C)NC(=O)c1nc(-c2ccc(F)cc2)n2c1CN(C)CCC2 [Compound 547, (S)-N-(4,4-dimethyl-1-(methylamino)-1-oxopentan-2-yl)-3-(4-fluorophenyl)-8-methyl-6,7,8,9-tetrahydro-5H-imidazo[1,5-a][1,4]diazepine-1-carboxamide] | + | 
COCCNC(=O)[C@@H](NC(=O)c1nc(-c2ccccc2)n2c1CN(C)CCC2)C(C)(C)C [Compound 475, (S)-N-(1-(2-methoxyethylamino)-3,3-dimethyl-1-oxobutan-2-yl)-8-methyl-3-phenyl-6,7,8,9-tetrahydro-5H-imidazo[1,5-a][1,4]diazepine-1-carboxamide] | + | 
CNC(=O)[C@H](CC(C)C)NC(=O)c1nc(-c2ccc(Cl)cc2F)n2c1CN(C)CCC2 [Compound 529, (S)-3-(4-chloro-2-fluorophenyl)-8-methyl-N-(4-methyl-1-(methylamino)-1-oxopentan-2-yl)-6,7,8,9-tetrahydro-5H-imidazo[1,5-a][1,4]diazepine-1-carboxamide] | + | 
CCCCCCc1nc(C(=O)N[C@H](C(=O)NC)C(C)(C)C)c2n1CCCN(C)C2 [Compound 491, (S)-N-(3,3-dimethyl-1-(methylamino)-1-oxobutan-2-yl)-3-hexyl-8-methyl-6,7,8,9-tetrahydro-5H-imidazo[1,5-a][1,4]diazepine-1-carboxamide] | + | 
CNC(=O)[C@H](CC(C)C)NC(=O)c1nc(C2=CCCC2)n2c1CN(C)CC2 [Compound 279, (S)-3-cyclopentenyl-7-methyl-N-(4-methyl-1-(methylamino)-1-oxopentan-2-yl)-5,6,7,8-tetrahydroimidazo[1,5-a]pyrazine-1-carboxamide] | + | 
CNC(=O)[C@@H](NC(=O)c1nc(C#Cc2cccnc2)n2c1CN(C)CC2)C(C)(C)C [Compound 205, (S)-N-(3,3-dimethyl-1-(methylamino)-1-oxobutan-2-yl)-7-methyl-3-(pyridin-3-ylethynyl)-5,6,7,8-tetrahydroimidazo[1,5-a]pyrazine-1-carboxamide] |  | EC50: > 10000 nM
CNC(=O)[C@@H](NC(=O)c1nc(-c2ccc(OC)c(C)c2)n2c1CN(C)CCC2)C(C)(C)C [Compound 350, (S)-N-(3,3-dimethyl-1-(methylamino)-1-oxobutan-2-yl)-3-(4-methoxy-3-methylphenyl)-8-methyl-6,7,8,9-tetrahydro-5H-imidazo[1,5-a][1,4]diazepine-1-carboxamide] |  | EC50: > 10000 nM
CNC(=O)[C@@H](NC(=O)c1nc(-c2cccc(-c3ccccc3)c2)n2c1CN(C)CCC2)C(C)(C)C [Compound 383, (S)-3-(biphenyl-3-yl)-N-(3,3-dimethyl-1-(methylamino)-1-oxobutan-2-yl)-8-methyl-6,7,8,9-tetrahydro-5H-imidazo[1,5-a][1,4]diazepine-1-carboxamide] |  | EC50: > 10000 nM
CN1CCn2c(-c3ccccc3)nc(C(=O)N[C@H](C(=O)N(C)C)C(C)(C)C)c2C1 [Compound 79, (S)-N-(1-(dimethylamino)-3,3-dimethyl-1-oxobutan-2-yl)-7-methyl-3-phenyl-5,6,7,8-tetrahydroimidazo[1,5-a]pyrazine-1-carboxamide] | + | 
Cc1noc([C@@H](NC(=O)c2nc(-c3ccccc3)n3c2CN(C2CC2)CC3)C(C)(C)C)n1 [Compound 198, (S)-7-cyclopropyl-N-(2,2-dimethyl-1-(3-methyl-1,2,4-oxadiazol-5-yl)propyl)-3-phenyl--5,6,7,8-tetrahydroimidazo[1,5-a]pyrazine-1-carboxamide] | + | 
CNC(=O)[C@@H](NC(=O)c1nc(-c2ccc(C#N)cc2)n2c1CN(C)CCC2)C(C)(C)C [Compound 342] | + | 

Where two headings read alike, the source gives them in different places.
